In PubChem BioAssay AID662 (National Center for Advancing Translational Sciences (NCATS), 2007):
Out of some 71,000 compounds screened, about 1,800 (2.5%) were called active. This list was built around the results that the source calls inconclusive (neither active nor inactive); the mix of calls is not that of the screen. Calls follow the shape of the dose curve; as a rule, active = well fitted activation curve with a large enough effect in the signal ratio, with a control signal flat (not every such curve was filed as active); inconclusive = small, poorly fitted or top-dose-only effect, or effect the other way, or a change in a side signal; inactive = flat fitted curve, though single readings scatter; the % refers to the signal ratio. Potencies of inconclusive entries are doubtful fits and often do not repeat.

test: Cell signaling CRE-BLA (Fsk stim); settings: CHO CRE-bla reporter (cAMP response element driving beta-lactamase), forskolin EC10, beta-lactamase ratio; activity change, negative = inhibition: at 38.2 µM (top of the series) unless noted; as to activity change, negative = inhibition: % of control where 0% means no effect
Procedure, shortened: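 CRE-bla CHO reporter cells treated with compound titration plus EC10 NKH 477 (water-soluble forskolin), incubated 3 h at 37 °C; CCF4 loading 2 h at room temperature, 460/530 nm emission ratio read, AC50 values derived for positive or negative modulators.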
Potency is read from the fitted curve at half-maximal effect; tags tell the direction and shape of the fitted curve.

Row | SMILES | Potency | activity change, negative = inhibition
1 | CC(=O)NC(CC(C)C)C(=O)NC(=O)NCc1ccccc1 (stereo not given) | inconclusive: 0.0631 µM [rising, full curve, poor fit] | –
2 | CCc1nc(N(CC)CC)c2oc3ccccc3c2n1 | active: 7.94 µM | –
3 | COc1ccc(CCNc2oc(COc3ccccc3Cl)nc2C#N)cc1OC | – | inconclusive: -14.8%
4 | C/C(=C\c1cc(C(=O)O)c(C)o1)CO | – | inactive: -6.22%
5 | Nc1c(S(=O)(=O)c2ccccc2)nnn1-c1ccccc1 | – | inconclusive: 11.7%
6 | CCN(C(=O)c1cc2cccc(OC)c2oc1=O)c1ccccc1 | inconclusive: 3.16 µM [rising, single point] | –
7 | O=c1c(-c2cccs2)nc2cnc(N3CCNCC3)nc2n1CCc1ccccc1 | inconclusive: 0.398 µM [rising, full curve] | –
8 | CCCCSc1nc2c(cnn2-c2ccc(F)cc2)c(=O)[nH]1 | inconclusive: 3.98 µM [rising, partial curve] | –
9 | CCOc1ccc(-c2nnn(CC(=O)Nc3ccccc3OC)n2)cc1OCC | inconclusive: 2.51 µM [rising, full curve, poor fit] | –
10 | COc1ccccc1NC(=O)N1CCCC1C(=O)Nc1ccc(NC(C)=O)cc1 (stereo not given) | – | inactive: 3.95%
11 | COC(=O)c1ccc(COC(=O)c2[nH]c(C)c(C(C)=O)c2C)o1 | inconclusive: 12.6 µM [rising, partial curve] | –
12 | O=C(NC1CCCCC1)C(c1ccccc1)N1CCOCC1 (stereo not given) | – | inconclusive: -9.76%
13 | CCCCn1c(NC(C)CC)nc2c1c(=O)[nH]c(=O)n2C (stereo not given) | active: 10 µM | –
14 | CN1CCN(c2ncncc2-c2ccc(N(C)C)cc2)CC1 | – | inactive: -3.82%
15 | Oc1c(Br)cc(Br)cc1CN(Cc1cc(Br)cc(Br)c1O)C1CCCCC1 | – | inactive: -16.2% [at 7.6 µM]
16 | COc1ccc(OC)c(NC2=NC3(CCCC3)N=C(N)N2)c1 | – | inactive: 7.54%
17 | O=C(CCc1ccccc1)Nc1ccc(N2CCOCC2)cc1 | – | inactive: -0.65%
18 | CCOC(=O)C(C)n1cnc2c(nnn2-c2ccc(OC)cc2)c1=O (stereo not given) | – | inconclusive: 16.2%
19 | CC(=O)c1c(NC(=O)C(C)C)nc(C)nc1-c1ccccc1 | – | inconclusive: 18.8% [at 7.6 µM]
20 | Cc1[nH]nc2c1C1(CCN(Cc3ccccc3)CC1)C(C#N)=C(N)O2 | – | inactive: 18.5%
21 | Cc1cc(C)c2c(CN3CCN(C)CC3)cc(=O)oc2c1 | – | inactive: 5.81%
22 | Cc1ccc(-c2nn(C)c(=O)c3ccccc23)cc1S(=O)(=O)NCCO | active: 10 µM | –
23 | CCN(CC)C(C(=O)Nc1ccc2c(c1)OCO2)c1ccccc1 (stereo not given) | – | inactive: -5.32%
24 | C=C[C@@]1(C)CC(=O)[C@@]2(O)[C@@]3(C)[C@@H](O)CCC(C)(C)[C@@H]3[C@H](OC(=O)CCN(C)C)[C@H](OC(C)=O)[C@@]2(C)O1 | active: 0.0501 µM | –
25 | COc1ncnc2c1oc1nc(CC(C)C)c3c(c12)CCCC3 | inconclusive: 2.51 µM [rising, full curve, poor fit] | –
26 | COc1cc(NC(=O)c2cc3sccc3n2C)cc(OC)c1 | – | inactive: 15.1%
27 | COc1ccc(CCNc2oc(-c3ccco3)nc2C#N)cc1 | – | inconclusive: 21.6%
28 | COc1ccccc1C1(CC(=O)O)CCOC(C)(C)C1 (stereo not given) | inconclusive: 0.631 µM [falling, single point] | –

Row | SMILES | Potency | activity change, negative = inhibition
29 | COc1ncc2nc(-c3cc(F)cc(F)c3)c(=O)n(Cc3cccs3)c2n1 | active: 5.01 µM | –
30 | CCCCOc1ccccc1C1CC(=O)NC2=C1C(=O)CCC2 (stereo not given) | active: 15.8 µM | –
31 | COc1ccc(N2CCN(S(=O)(=O)c3cccs3)CC2)cc1 | – | inactive: 1.42%
32 | CN(C)c1ccc(-c2nccc(NCCN3CCOCC3)n2)cc1 | – | inconclusive: 19.9%
33 | O=C(Oc1c(CN2CCOCC2)cc(Cl)c2cccnc12)c1ccc(F)cc1 | – | inactive: -3.21%
34 | O=C(c1cnccn1)N1CCC2(CC1)CN(Cc1cc(C(F)(F)F)cc(C(F)(F)F)c1)C2 | – | inactive: -10.6%
35 | O=C(NCC1CCCO1)c1c(O)c2c([nH]c1=O)CCCC2 (stereo not given) | – | inactive: 9.5%
36 | CCOC(=O)c1sc(NC(=O)CSc2nnc(-c3ccc(OC)cc3)n2CCOC)nc1C | – | inconclusive: 26.6%
37 | O=C(O)CCCC[C@H]1SC[C@H]2NC(=O)N[C@@H]21 | – | inactive: 1.76% [at 17.1 µM]
38 | CCN1CC=C2C(C1)C(c1ccc(Cl)s1)C(C#N)=C(N)C2(C#N)C#N (stereo not given) | – | inactive: 1.21%
39 | Cc1ccc2nc(NC3=NCN(Cc4ccccc4)CN3)nc(C)c2c1 | – | inactive: 11.2%
40 | Cc1ccccc1Cc1c(C)nc2ncnn2c1C | inconclusive: 10 µM [rising, single point] | –
41 | NCCCCNS(=O)(=O)c1ccc2c(Cl)cccc2c1 | – | inactive: -16.6%
42 | COc1ccc(-c2noc(CCC(=O)NCc3cccnc3)n2)cc1OC | – | inconclusive: 13.2%
43 | Cc1cc(C)cc(N(CC(=O)Nc2c(C)n(C)n(-c3ccccc3)c2=O)S(C)(=O)=O)c1 | inconclusive: 1 µM [rising, single point] | –
44 | O=C(Cc1ccc(Cl)cc1)Nc1ccc2oc(-c3ccncc3)nc2c1 | – | inactive: 11.2%
45 | CCCc1cc2c(=O)c(-c3ccccn3)coc2cc1OC | – | inconclusive: 20.5%
46 | COc1ccc(OC)c(C2=NOC(C(=O)Nc3cccnc3)C2)c1 (stereo not given) | – | inconclusive: 2.02%
47 | Nc1ncnc2c1nc(Br)n2[C@H]1O[C@H]2COP(=O)(O)O[C@H]2[C@@H]1O | – | inconclusive: 57.9%
48 | O=C(CSc1nnnn1-c1ccccc1)Nc1nsc(-c2ccccc2)n1 | inconclusive: 3.16 µM [rising, single point] | –
49 | O=C(c1cc(C(F)(F)F)cc(C(F)(F)F)c1)N1CCC2(CC1)CCN(c1ccccc1)CC2 | – | inactive: -2.83%
50 | c1ccc(COn2c(-c3ccccc3)nc3c2CCc2nonc2-3)cc1 | – | inactive: 0.272%
51 | CN1CCc2c(sc3c2C(=O)NC(c2ccccn2)N3)C1 (stereo not given) | inconclusive: 10 µM [rising, partial curve] | –
52 | Cc1ccc(NC2c3ncccc3C(=O)N2C2CCCCC2)cc1C (stereo not given) | – | inconclusive: -15.8%
53 | O=C(Cc1ccccc1)N1CCC(c2nc(-c3ccc(F)cc3)no2)CC1 | – | inactive: -0.949%
54 | Cc1cccc(N2CCN(S(=O)(=O)c3ccc4c(c3)n(C)c(=O)c(=O)n4C)CC2C)c1 (stereo not given) | inconclusive: 5.01 µM [rising, single point] | –
55 | COCCn1nnnc1CN(CCc1ccc(OC)c(OC)c1)Cc1cc2ccc(C)cc2[nH]c1=O | – | inactive: 16.1%
